Data on one molecule can be found in patent publication US10751422B2, “Antibody drug conjugates (ADC) that bind to FLT3 proteins” (AGENSYS, INC., priority 2015, dated 2020).

For one experiment, the system named is FLT3. The experiment is described as follows: FACS binding to AML and B-ALL cell lines grown in vitro. Set-up: species or system human. The note with it: for Geometric Mean fluorescence: antibody 10 ug/ml. As for the experimental part:
CHv62.21 was tested for binding to AML and B-ALL cell lines grown in vitro. (See, FIGS. 15A-15M). Briefly, CHv62.21 and an isotype matched control antibody were biotinylated using NHS LC biotin. In vitro, exponentially grown cancer cell lines were used for all experiments. Cells were harvested by and washed by centrifugation. Cells were Fc blocked to reduce non-specific binding. Antibodies were diluted to 10 ug/ml final concentration and co-incubated with cells at 4° C. for 1 hour. At the end of the incubation, cells were washed and incubated with secondary detection Streptavidin-PE antibody at a final 1:200 (2.5 ug/ml) dilution for 1 hour at 4° C. After washing un-bound secondary antibody, cells were analyzed by FACS and geometric mean fluorescence was determined and reported. Fluorescence ratio was calculated as follows: Geo mean cHv62.21/Geo mean isotype control=MFR, a measure of fold expression above isotype control.
Geometric Mean values and Mean Florescence ratios (MFR) values were obtained (Table VI) and histograms are shown (FIGS. 15A-15M).
On the technique in general: In flow cytometry, cells or beads pass a laser one at a time.

A further experiment concerns EOL-1. The experiment is described as follows: EOL-1 cell growth with human FLT3 ligand and antibody (Cell Titer Glo, 5 days). It is filed as cell-based. The settings on record: 50, 10 or 5 ng/mL human FLT3 ligand, 10, 1, 0.1 μg/mL antibody. As for the experimental part:
The ability of FLT3 antibodies (CHv62.21 and v62-1b37.1) to mediate the effect of human FLT3 ligand was evaluated using the human leukemia EOL-1 cell line, which endogenously expresses FLT3. Isotype control antibody (mLys-1c3.1) was also used. […] The next day, cells were treated with 50, 10 or 5 ng/mL of human FLT3 ligand (in 25 μl of complete media) and 10, 1, 0.1 and 0 μg/mL of test antibody (in 25 μl of complete media). Media alone was used as the untreated control. […] At the end of the incubation period, 100 μl of Cell Titer Glo was added to each well and incubated for 30 minutes, shaking, at room temperature.

A further experiment has as its system EOL-1 and SEM. The experiment is described as follows: ADCC activity in vitro (CytoTox 96 LDH assay), target cells EOL-1 and SEM. It is filed as cell-based. The note with it: effector normal human PBMC, E:T=100:1, 2.5 ug/mL, 4 hours. The protocol: CHv62.21 and CHv62.21pAF was tested for ADCC activity in vitro. Briefly, the naked and ADC anti-FLT3 monoclonal antibodies, CHv62.21 and CHv62.21pAF were tested for their ability to mediate antibody dependent cytotoxicity activity (ADCC) using the target cell lines EOL-1 and SEM in the presence of the effector cells, normal human PBMCs using the CytoTox 96® Non-Radioactive Cytotoxicity Assay (Promega, G1780).
One (1) day prior to performing the assay, three (3) vials of the effector cells, normal human PBMC (Hemacare, Donor ID: 1888), were thawed, washed and plated into T-175 cell culture flasks in RPMI-1640 supplemented with 10% heat inactivated fetal bovine serum. The flasks were stored in an incubator at 37° C. […]
The test samples were each diluted to a final concentration of 2.5 ug/mL in assay buffer. […] The activity of lactate dehydrogenase in the supernatant was determined by using the colorimetric LDH Detection Kit; CytoTox 96® Non-Radioactive Cytotoxicity Assay (Promega) with absorbance readings taken at 490 nm.
The data was analyzed by first subtracting the average of absorbance values of the Culture Medium Background wells from all absorbance values of Experimental, Effector spontaneous, Target spontaneous and Target maximum wells. Next, the average of the corrected absorbance readings was normalized and ADCC activity was calculated by using the following formula: […]

The target of experiment [1] is T1, Recombinant human FLT3-Fc (Homo sapiens, UniProt P36888).
T1 construct: purchased R and D Systems
The experiment is described as follows: FLT3 ligand blocking assay on Luminex microspheres. The settings on record: biotinylated FLT3 ligand 5 ng/mL; antibody 10 μg/mL; 60 minutes. It is filed as binding. The text has this: In one experiment, the CHv62.21 MAb of the invention was confirmed to not block FL. Briefly, Recombinant human FLT3-Fc was purchased from R and D Systems. This protein was immobilized onto the surface of activated Luminex microspheres using standard sulfo-NHS/EDC chemistry according to the procedure provided by Luminex. A His-tagged version of the protein, along with several other proteins were conjugated to Luminex microspheres, and served as controls in this procedure.
In addition, FLT3 ligand was also purchased from R and D Systems. The ligand was biotinylated using Thermo Scientific EZ-Link Sulfo-NHS-LC-Biotin, No-Weigh Formula according to the manufacturer's recommendations. After two (2) hours of reacting the protein with Sulfo-NHS-LC-Biotin, unincorporated biotin was removed by dialysis against DPBS.
The ability of FLT3 immobilized onto the surface of the microspheres to bind to its biotinylated ligand was assessed by reacting the microspheres with various concentrations of biotinylated ligand, prepared in buffer containing PBS, 2% BSA, 0.05% Tween 20, and 0.1% sodium azide, for 120 minutes at RT with gentle shaking. […] Biotinylated FLT3 ligand bound to its immobilized receptor was detected with Streptavidin-R-Phycoerythrin (Moss, Inc.). The fluorescence associated with the microspheres was measured with the Luminex instrument. […]

The next experiment deals with Flt3 protein (Homo sapiens, UniProt P36888). The experiment is described as follows: Binding to FLT3 recombinant protein by ELISA. The protocol: The CHv62.21 MAb secreted from recombinant cells is also evaluated for binding to FLT3 recombinant protein by ELISA.

B1: CHv62.21: FLT3 MAb, human IgG1/kappa, heavy chain SEQ ID NO: 9, light chain SEQ ID NO: 10, CHO cell ATCC PTA-121831 (antibody, listed as Homo sapiens)
heavy: EVQLVESGGGLVRPGGSLRLSCAASGFTFSGYSINWVRQAPGKGLEWVSSISSSSNYIYYADSVKGRFTISRDNAKNSLYLQMNSLRAEDTAVYYCAREGFIAGTTFDAFDIWGQGTMVTVSS[skipping human IgG1 constant region]
light: DIQMTQSPSSLSASVGDRVTITCRASQGIRNDLGWYQQKPGKAPKRLIYAASSLQSGVPSRFSGSGSGTEFTLTISSLQPEDFATYYCLQHNGFPYTFGQGTKLEIKRTVAAPSVFIFPPSDEQLKSGTASVVCLLNNFYPREAKVQWKVDNALQSGNSQESVTEQDSKDSTYSLSSTLTLSKADYEKHKVYACEVTHQGLSSPVTKSFNRGEC
modifications: CHv62.21 heavy chain; CHv62.21 light chain
B1: in the experiment on FLT3 (AML and B-ALL cell lines), the “binding to human cancer cell lines (summary of FACS)” value is listed as “binds several human cancer cell lines”. In addition, the “Geometric Mean fluorescence” value is 14000 with FLT3 (EOL-1 (AML)); 634 with FLT3 (Karpas-299 (ALCL)); 14000 in the experiment with FLT3 (MOLM-13 (AML)); 11400 in the experiment with FLT3 (MONOMAC-1 (AML)); 2875 in the experiment with FLT3 (MV-4-11 (AML)); 12900 in the experiment on FLT3 (NALM-1 (CML)). Further, the “Geometric Mean fluorescence” value in the experiment with FLT3 (OCI-AML2 (AML)) turned out to be 5646; in the experiment on FLT3 (PL-21 (AML)), 3715; with FLT3 (REH (ALL)), 16200; in the experiment on FLT3 (RS4, 11 (B-ALL)), 18400; in the experiment with FLT3 (SEM (B-ALL)), 132000; in the experiment with FLT3 (SKM-1 (AML)), 3208. For the same molecule, the “Geometric Mean fluorescence” value in the experiment on FLT3 (THP-1 (AML)) was 19700. Moreover, the “Mean Florescence ratio (MFR)” value in the experiment on FLT3 (Karpas-299 (ALCL), Geo mean antibody/Geo mean isotype control) is on record as 1. For the same molecule, the “effect on growth of EOL-1 cells in the presence of FLT3 ligand” value with EOL-1 is reported as “does not have any effect on growth”. Further, the ADCC activity result in the experiment with EOL-1 and SEM is “do not show ADCC activity”. For the same molecule, in experiment [1], the “blocking of FLT3 ligand (FL) binding to immobilized FLT3” value is given as “is a non FL blocker”. The “binding to FLT3 protein, CHO vs hybridoma derived material” value with Flt3 protein was “identical”.
